# Test results as given in the supplement of paper PMC11417369.
# ± gives the standard deviation of the averaged measurements. Some of the results follow.
# Test system: PfAP2-I AP2 domain 3 (GST-tagged)
# Test: gcPBM binding intensity (ln(normalized median fluorescence intensity)); higher = stronger DNA binding
# Procedure, shortened: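 In this array assay, P. falciparum DNA-binding domains with a GST tag, expressed in E. coli, were applied for 1 h to primer-extended double-stranded 36-bp intergenic genomic probes and negative controls on an Agilent 4 × 180k array. Bound protein was visualised with Alexa488 anti-GST antibody at 488 nm. Binding intensity is the highest Masliner-normalised natural-log median intensity across replicate spots of either probe orientation.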
row,Sequence,gcPBM binding intensity (ln)
1,AATTTTCAATAGTATACACACAATTATATATATATA [CACACA_site1116],9.37 ± 0.38
2,TCTTTTCTCGGAAGGGTGCAAGGAATTAATGAAATA [GTGCAC_site9706],9.64 ± 0.13
3,TATATATGTAGACGTTGTACTTTTTTGTAAGTTTAA [XGTACX_site5638],7.79 ± 0.26
4,CATGACATATCCTGTAGTACAACGTATATATAAGAT [XGTACX_site2577],7.8 ± 0.61
5,AAAATAAAATCATAAAGTACAAAAAGAAAATAAAAA [XGTACX_site7376],7.92 ± 0.38
6,TGTGTCAAGTTTAATAAACGCATATAATATATATGA [CACACA_negctrl_site607],7.64 ± 0.49
7,TTTAAATTTTTATATTGTACTTTATTTATTTATTTA [XGTACX_site869],7.56 ± 0.51
8,ATGTTTAATTAAATATGTACTTATTATATTATATGT [XGTACX_site8137],7.74 ± 0.41
9,TTTAATTTTTATATAACACACATATTGTAATTATGT [CACACA_site4566],7.57 ± 0.41
10,AGGAATCTACATATATGTACATATATTGATATATTT [XGTACX_site137],7.68 ± 0.45
11,AATGTTTAATATAACGCATGCCTTAATATAGAATGC [TGCATGCA_site463],8 ± 0.74
12,TATTTTTATAAAAACTGTACATAATAAATAAAAATA [XGTACX_site4743],7.86 ± 0.41
13,AATCAAAGTAATTTAACACACAATTTTAATACTGTT [CACACA_site7169],7.55 ± 0.58
14,TTATATGTTTCTTCACGTACGTATAAAAATGAACTT [XGTACX_site1764],7.94 ± 0.58
15,TATCATGTGCGTGCGTGTACTTAACACACATAATAT [XGTACX_site2404],8.31 ± 0.54
16,TCATTTATTTTAAGGTGTACCGTTTAAAATCACAAA [XGTACX_site3243],7.78 ± 0.32
17,ATATTGACAAATATTACACACATATATATATATATA [CACACA_site4079],9.31 ± 0.41
18,TTGTTCATTATGCACAGTACATAAAAAGTAAAAAAA [XGTACX_site2403],10 ± 0.65
19,TTTTTTTGCGCGGGAAGAATAAAATTTATAGAATAT [TGCATGCA_negctrl_site306],8.31 ± 0.63

row,Sequence,gcPBM binding intensity (ln)
1,CAGACATTAATAAGTAGTACACAATAATTGACTAGG [XGTACX_site854],8.11 ± 0.31
2,AATTTACACGTACGTGTACACACAAAAATATGTTTT [CACACA_site8242],8.55 ± 0.34
3,TTTCTAAATAATATACACAAAAAAATAAAACACTAA [TGCATGCA_negctrl_site43],8.09 ± 0.38
4,TGAAAAGATAAAAAATGTACATATATATTATATATA [XGTACX_site5678],7.82 ± 0.54
5,ATACACAATTATTTTCCTATTATGCAAGCAAATTTA [CACACA_negctrl_site1176],8 ± 0.65
6,GTTTAACTGTTTTATACACACAATGTAGACAATAAA [CACACA_site8967],7.84 ± 0.5
7,TAAATACATTGACACACACACAAATATGTACATACA [CACACA_site7371],8.04 ± 0.31
8,ACTTGATTACACAACCACAAGTAATTGAAATTATTT [XGTACX_negctrl_site297],8.05 ± 0.57
9,GTACAAAAAAAGTGTACACAAAGTAAGACTTTAATT [CACACA_site5068],8.26 ± 0.43
10,CACTGTAAATAGAAAGTGCAAAAATTGTAAATAAAA [GTGCAC_site9980],9.75 ± 0.26
11,AGTAATAATATAATTTGTACATATATATATTATAAA [XGTACX_site7138],7.65 ± 0.3
12,TACAAAAATGTAGTCACACATATGTATACTTTTATG [CACACA_site5607],7.49 ± 0.44
13,AGTTTTATGTAGTGTTGTACTTTATACAAATATATA [XGTACX_site990],7.87 ± 0.35
14,TTTCTAATTTATATCACACACATATATAAATAGTAA [CACACA_site6156],7.91 ± 0.44
15,ATATATATAATTTAAAGTACATATTTAAGAATGAAA [XGTACX_site2238],8.06 ± 0.49
16,GACATTAAAATGAAATATACATATATATGTATATAT [TGCATGCA_negctrl_site601],7.63 ± 0.43
17,TTACATTTTTGAAATAGATACATACACGTGTATGTA [CACACA_negctrl_site1311],7.58 ± 0.58
18,AAAATTAACCGTAACACACACACATATATATATATA [CACACA_site3964],9.61 ± 0.4
19,TATATGTTTACTTAATGTACTTACATTTTTATAACA [XGTACX_site1100],7.67 ± 0.49

row,Sequence,gcPBM binding intensity (ln)
1,AAACAAAAAAACTACAGTACTTTTTTCAATTCCCCT [XGTACX_site7541],7.8 ± 0.49
2,TTATTAATTTTTATTTTTAAATCACAAAAGATATAA [CACACA_negctrl_site787],7.43 ± 0.4
3,ACATAAATAATAAAAACACACATATGTACTTATATA [CACACA_site8581],7.84 ± 0.18
4,CATATTTGTATATGCACACATAAATTTTTCCATTTC [CACACA_site3467],9.31 ± 0.26
5,AAATTTTTAAACAGCACACATAAATATAATATATAT [CACACA_site2208],8.27 ± 0.21
6,TCTTGTATACGGCATGCATGTTAGCACATACGGACA [TGCATGCA_site146],8.12 ± 0.72
7,TTTTTAAAACCTTACATACACACAAATATATATATA [CACACA_site678],9.19 ± 0.057
8,TGAATTCATAGCAGTTGTACATTGCATGAAGAAACG [XGTACX_site3312],8.01 ± 0.58
9,TGTTCCGAAGGTTGTACACACATAGAAATATACATA [CACACA_site3874],7.98 ± 0.44
10,AATACTTTTTATTTAGTGCATAAGAAAATATAAATC [GTGCAC_site9875],10.9 ± 0.44
11,TATAAAATATGTATGAGGAATAAAATTAAAAAAAAA [TGCATGCA_negctrl_site178],7.62 ± 0.67
12,AAAAAAAAAAATTCGGTGCAATGTAATTAATGTAAA [GTGCAC_site9588],9.675 ± 0.078
13,TGGTAATACACATACACACACACATACACATATATA [CACACA_site7312],8.22 ± 0.34
14,AATTGAAAAATCAGCACACACACAAATACATACATA [CACACA_site3232],8.09 ± 0.4
15,GCTATATATTACAATCGTACAATATATATATATATA [XGTACX_site6730],9.04 ± 0.59
16,ATATATATATATATTACACACATGTGCAATTAAAAT [CACACA_site1778],9.79 ± 0.43
17,AATATAAGAATATATACACACATAAATACATACATA [CACACA_site4128],7.63 ± 0.45
18,CCTTTATAAAAAAGTAGTACACAATGAATTTATAAT [XGTACX_site5523],8.1 ± 0.3
